{
  "source": "PubChem BioAssay AID485360",
  "about": "(National Center for Advancing Translational Sciences (NCATS), 2010)",
  "note": "About 1,500 (0.65%) of roughly 230,000 compounds were called active. The inconclusive results got no clear call from the source; some entries with a clear call stand among them for comparison. The call rests on the fitted dose curve; in most records, active means well fitted inhibition curve with a large enough effect; inconclusive means small, poorly fitted or top-dose-only effect; inactive means no such curve, though single readings can be large or run the other way. Potencies beside an inconclusive call are fits to weak or partial responses and may not hold up. On the % scale 0 is the no-effect control and ±100 the full control effect; potency means the concentration at half of the fitted maximal effect; tags describe the fitted curve by direction and shape.",
  "data": [
    {"biological_target": "Lethal(3)malignant brain tumor-like protein 1 (Homo sapiens) (UniProt Q9Y468)", "sequence (Q9Y468 whole entry, looked up)": "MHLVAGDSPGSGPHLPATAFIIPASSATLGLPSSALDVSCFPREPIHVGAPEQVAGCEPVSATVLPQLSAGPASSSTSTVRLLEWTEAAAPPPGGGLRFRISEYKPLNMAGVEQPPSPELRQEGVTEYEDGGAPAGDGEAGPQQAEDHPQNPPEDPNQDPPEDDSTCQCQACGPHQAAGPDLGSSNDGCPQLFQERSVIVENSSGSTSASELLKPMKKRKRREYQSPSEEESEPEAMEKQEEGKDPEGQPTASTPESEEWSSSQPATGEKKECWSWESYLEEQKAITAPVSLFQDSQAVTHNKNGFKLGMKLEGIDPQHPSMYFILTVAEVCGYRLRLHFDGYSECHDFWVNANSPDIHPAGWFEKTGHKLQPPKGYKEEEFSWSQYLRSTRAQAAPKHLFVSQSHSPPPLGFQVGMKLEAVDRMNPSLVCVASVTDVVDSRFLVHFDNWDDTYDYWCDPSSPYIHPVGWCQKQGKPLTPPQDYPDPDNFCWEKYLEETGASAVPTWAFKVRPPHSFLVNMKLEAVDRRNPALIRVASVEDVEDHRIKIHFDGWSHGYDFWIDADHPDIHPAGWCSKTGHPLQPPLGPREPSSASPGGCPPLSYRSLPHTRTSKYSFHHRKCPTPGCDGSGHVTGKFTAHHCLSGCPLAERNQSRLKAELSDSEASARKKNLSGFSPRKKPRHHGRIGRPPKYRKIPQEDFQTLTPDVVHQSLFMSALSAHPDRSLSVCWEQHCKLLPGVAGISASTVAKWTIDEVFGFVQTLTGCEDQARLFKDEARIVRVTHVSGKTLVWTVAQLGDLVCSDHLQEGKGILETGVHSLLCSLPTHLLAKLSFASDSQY", "assay": "qHTS Assay for the Inhibitors of L3MBTL1; further: nearly all actives have a fitted effect of over 60% in size", "details": "AlphaScreen L3MBTL1–H3K9me1 peptide binding; activity, negative = inhibition: at 57.1 µM (top of the series)", "summary_of_the_method": "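AlphaScreen assay: L3MBTL1 (50 nM final) was preincubated 30 min at room temperature with biotinylated H3(1-15)K9me1 peptide (75 nM final), then 30 min with library compounds; streptavidin donor and nickel chelate acceptor beads (10 ug/mL final) added, 30 min dark.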", "values": [
      {"smiles": "Nc1cc(S(=O)(=O)Nc2cc(Cl)ccc2Cl)ccc1N1CCCC1", "Potency": "inconclusive: 25.1 µM [inhibitor, single point]"},
      {"smiles": "FC(F)(F)c1cccc(Cc2noc(CN3CCCC(CN4CCCC4)C3)n2)c1", "note": "(configuration not stated)", "Potency": "inconclusive: 0.1 µM [inhibitor, full curve, poor fit]"},
      {"smiles": "CCC(C(=O)NC(C)(C)C)N(C(=O)Cn1nnc(-c2ccccc2F)n1)c1cccc2c1CCCC2", "note": "(configuration not stated)", "Potency": "inactive"},
      {"smiles": "O=C(N/N=C/c1cc2c(cc1Br)OCO2)c1ccccn1", "Potency": "inactive"},
      {"smiles": "NC(=O)c1c(NC(=O)c2ccccc2)sc2c1CCN(Cc1ccccc1)C2", "Potency": "inactive"},
      {"smiles": "COC(=O)c1ccc(C2/C(=C(/O)c3ccc(OC)cc3)C(=O)C(=O)N2Cc2ccco2)cc1", "note": "(configuration not stated)", "Potency": "inactive"},
      {"smiles": "O=C1CN(C(=O)c2ccccc2C(=O)O)c2ccccc2N1", "activity, negative = inhibition": "inconclusive: -91.8% [inhibitor]"},
      {"smiles": "CN(C)c1ccc(C(CNS(=O)(=O)c2ccc3ccccc3c2)c2c[nH]c3ccccc23)cc1", "note": "(configuration not stated)", "Potency": "inconclusive: 14.1 µM [inhibitor, partial curve]"},
      {"smiles": "CN=c1scc(-c2ccc(OC)cc2)n1/N=C(\\C)c1cccnc1", "Potency": "inconclusive: 10 µM [inhibitor, partial curve]"},
      {"smiles": "COc1ccc(/C=C2/N=C(SC3CCOC3=O)N(c3cccc(OC)c3)C2=O)cc1", "note": "(configuration not stated)", "Potency": "inconclusive: 22.4 µM [inhibitor, single point]"},
      {"smiles": "O=C(CSc1nc2ccccc2[nH]1)NC1CCCC1", "Potency": "inconclusive: 17.8 µM [inhibitor, partial curve]"},
      {"smiles": "N/C(=N/OC(=O)c1ccccc1Cl)c1ncc([N+](=O)[O-])s1", "Potency": "inconclusive: 15.8 µM [inhibitor, partial curve]"},
      {"smiles": "COc1ccc(-c2ccnc3cc(C(=O)O)nn23)cc1", "Potency": "inconclusive: 0.398 µM [inhibitor, full curve, poor fit]"},
      {"smiles": "Cc1oc(-c2ccc(Cl)cc2)cc1-c1nn2c(-c3ccoc3C)nnc2s1", "Potency": "inconclusive: 3.55 µM [inhibitor, single point]"},
      {"smiles": "CCOc1ccccc1N=Cc1c(O)c2ccccc2oc1=O", "activity, negative = inhibition": "inactive: -5.46% [at 2.29 µM]"},
      {"smiles": "COc1ccc(N=C2S/C(=C\\c3cccs3)C(=O)N2CC(C)C)cc1", "Potency": "inactive"},
      {"smiles": "NC1=NC(=O)/C(=C/c2cn(CCC(=O)O)nc2-c2ccc(Cl)cc2)S1", "Potency": "inactive"},
      {"smiles": "Clc1ccccc1CN1CCN(/N=C/C=C/c2ccco2)CC1", "Potency": "inconclusive: 6.31 µM [inhibitor, partial curve]"},
      {"smiles": "Cc1c(Cl)c([N+](=O)[O-])nn1CCCC(=O)O", "Potency": "inconclusive: 0.447 µM [inhibitor, full curve, poor fit]"},
      {"smiles": "COc1ccc(Cc2nnc(NC(=O)Cc3cccs3)s2)cc1OC", "Potency": "active: 6.31 µM"},
      {"smiles": "FC(F)(F)c1ccc2c(c1)C1C=CCC1C(c1ccncc1)N2", "note": "(configuration not stated)", "Potency": "inconclusive: 25.1 µM [inhibitor, partial curve, poor fit]"},
      {"smiles": "Cc1cc(C)c2cc(C(c3nnnn3C3CCCC3)N3CCOCC3)c(=O)[nH]c2c1", "note": "(configuration not stated)", "Potency": "inactive"},
      {"smiles": "CC1CCN(C(=O)COC(=O)CSc2ccc(C(N)=O)cc2[N+](=O)[O-])CC1", "Potency": "inactive"},
      {"smiles": "COc1ccc(-c2c(-c3ccc(OC)c(F)c3)c3ccccc3n2C)cc1", "Potency": "inconclusive: 31.6 µM [inhibitor, single point]"},
      {"smiles": "O=C(CNC(=O)c1ccccc1)Nc1cccc(C(F)(F)F)c1", "Potency": "inconclusive: 6.31 µM [inhibitor, single point]"},
      {"smiles": "COc1cc(OC)cc(C(=O)NCC2CCCN(Cc3ccc(SC)cc3)C2)c1", "note": "(configuration not stated)", "Potency": "inactive"},
      {"smiles": "Clc1ccccc1C1Nc2cccc3cccc(c23)N1", "activity, negative = inhibition": "inconclusive: -34.2% [inhibitor]"},
      {"smiles": "CC(=O)OCC1=C(C(=O)O)N2C(=O)C(NC(=O)CC(C)c3ccccc3)C2SC1", "note": "(configuration not stated)", "Potency": "inconclusive: 28.2 µM [inhibitor, single point]"},
      {"smiles": "Cc1cc[n+](-c2[nH]c(=O)sc2/C=N/N=C(\\[O-])CCn2c3ccccc3c3ccccc32)cc1", "Potency": "inconclusive: 25.1 µM [inhibitor, partial curve]"},
      {"smiles": "COc1cccc(C2CC(c3ccccc3OC)n3ncnc3N2)c1", "note": "(configuration not stated)", "Potency": "inconclusive: 1 µM [inhibitor, full curve, poor fit]"},
      {"smiles": "Cc1c(C(=O)C(=O)N2c3ccccc3CC2C)c2ccccc2n1C", "note": "(configuration not stated)", "Potency": "inconclusive: 39.8 µM [inhibitor, partial curve]"},
      {"smiles": "Cc1c(OC(C)C(=O)NCC2CCC(C(=O)O)CC2)ccc2c1oc(=O)c1ccccc12", "note": "(configuration not stated)", "Potency": "inactive"},
      {"smiles": "O=C(COc1ccccc1)NNC1=NS(=O)(=O)c2ccccc21", "Potency": "inactive"},
      {"smiles": "NC(=Nc1ccc(N)cc1)C(N)=Nc1ccc(N)cc1", "Potency": "active: 31.6 µM"},
      {"smiles": "N/C(=N\\O)c1ccccc1-n1cccc1", "Potency": "inconclusive: 1.78 µM [inhibitor, full curve]"},
      {"smiles": "Cc1nc2ccccn2c1/C(O)=C1\\C(=O)C(=O)N(CCCn2ccnc2)C1c1ccncc1", "note": "(configuration not stated)", "Potency": "inconclusive: 0.708 µM [inhibitor, single point]"},
      {"smiles": "Cc1ccc(NC(=S)c2nc3ccccc3s2)cc1", "Potency": "inconclusive: 11.2 µM [inhibitor, partial curve]"},
      {"smiles": "O=C(CN1CCCCC1)Nc1ccccc1NC(=O)CN1CCCCC1", "Potency": "inactive"},
      {"smiles": "COc1ccc(NCc2nnc(SCc3ccc(Cl)cc3)n2-c2ccccc2)cc1", "Potency": "inconclusive: 14.1 µM [inhibitor, single point]"},
      {"smiles": "Cc1ccc(NC(=O)C2C(=O)N(C)c3ccccc32)cc1", "note": "(configuration not stated)", "Potency": "inconclusive: 3.16 µM [inhibitor, partial curve]"},
      {"smiles": "O=C(COC(=O)c1ccc([N+](=O)[O-])s1)Nc1ncc(C(F)(F)F)cc1Cl", "Potency": "inconclusive: 28.2 µM [inhibitor, single point]"},
      {"smiles": "COc1ccc(-c2nnc(SCC(=O)N3c4ccccc4Sc4ccccc43)o2)cc1", "Potency": "inconclusive: 7.08 µM [inhibitor, single point]"},
      {"smiles": "COc1ccccc1Oc1ccc(N/C=C/C(=O)c2ccco2)cc1", "Potency": "inconclusive: 35.5 µM [inhibitor, single point]"},
      {"smiles": "O=[N+]([O-])c1c(Nc2cccc(O)c2)cc(Cl)c2nonc12", "Potency": "inactive"},
      {"smiles": "CN(Cc1ccco1)c1ncnc2ccc(-c3ccoc3)cc12", "Potency": "inconclusive: 35.5 µM [inhibitor, single point]"},
      {"smiles": "O=C(Nc1nnc(S(=O)(=O)N2CCCCC2)s1)c1cccc(Br)c1", "Potency": "inconclusive: 39.8 µM [inhibitor, partial curve]"},
      {"smiles": "COc1ccc(NC(=O)CSc2nnc(-c3ccccn3)n2N)c(OC)c1", "Potency": "inconclusive: 39.8 µM [inhibitor, single point]"},
      {"smiles": "Cc1[nH]c(=O)[nH]c(=O)c1/C=N/NC(=O)[C@H](C)N", "Potency": "inconclusive: 39.8 µM [inhibitor, single point]"},
      {"smiles": "CN(C)/C=C1\\C(=O)NN=C1C(F)(F)F", "Potency": "inconclusive: 0.1 µM [inhibitor, full curve, poor fit]"},
      {"smiles": "CCC(=O)Nc1sc2c(c1C(N)=O)CCN(C(C)=O)C2", "Potency": "inconclusive: 3.55 µM [inhibitor, full curve]"},
      {"smiles": "CC(=O)Nc1ccccc1C(=O)C(=O)Nc1cccc(C(=O)NCc2ccccc2)c1", "Potency": "inconclusive: 39.8 µM [inhibitor, single point]"},
      {"smiles": "O=[N+]([O-])c1cccnc1Oc1ccc(C2SCCS2)cc1", "Potency": "inconclusive: 28.2 µM [inhibitor, partial curve]"},
      {"smiles": "COC(=O)c1ccc(NC(=S)Nc2ccccc2)cc1", "Potency": "inconclusive: 6.31 µM [inhibitor, single point]"},
      {"smiles": "COc1ccc(S(=O)(=O)N2CCOCC2)cc1NC(=O)COC(=O)c1ccc([N+](=O)[O-])s1", "Potency": "inconclusive: 39.8 µM [inhibitor, single point]"},
      {"smiles": "N=C1S/C(=C\\c2ccco2)C(=O)N1c1nccs1", "Potency": "inconclusive: 28.2 µM [inhibitor, single point]"},
      {"smiles": "Cc1cccc(N=C2NC(=O)S/C2=C\\c2ccco2)c1", "Potency": "inconclusive: 28.2 µM [inhibitor, partial curve]"},
      {"smiles": "O=C1c2cccc3cccc(c23)C(=O)N1CCN1CCN(CC(O)COc2ccc3ccccc3c2)CC1", "note": "(configuration not stated)", "Potency": "inactive"},
      {"smiles": "CCOC(=O)C1CCN(C2=C(NS(=O)(=O)c3ccc(Cl)cc3)C(=O)c3ccccc3C2=O)CC1", "Potency": "inconclusive: 28.2 µM [inhibitor, partial curve]"},
      {"smiles": "CN1C(=O)S/C(=C/c2cccn2-c2cccc(C(=O)O)c2)C1=O", "Potency": "inconclusive: 39.8 µM [inhibitor, single point]"},
      {"smiles": "CC(OC(=O)Cc1c[nH]c2ccccc12)C(=O)NC1CCCCC1C", "note": "(configuration not stated)", "Potency": "inconclusive: 39.8 µM [inhibitor, single point]"},
      {"smiles": "O=C(/C=C/c1ccco1)OCn1nnc2ccccc2c1=O", "Potency": "inconclusive: 28.2 µM [inhibitor, single point]"},
      {"smiles": "FC(F)(F)c1ccnc(N2CCN(Cc3cnc(-c4ccccc4)[nH]3)CC2)c1", "Potency": "inconclusive: 20 µM [inhibitor, partial curve]"},
      {"smiles": "N#C/C(=C\\c1ccccc1[N+](=O)[O-])c1nc(C2CC2)cs1", "Potency": "inconclusive: 39.8 µM [inhibitor, single point]"},
      {"smiles": "CC(C)(C)OC(=O)N[C@@H](Cc1ccccc1)C(=O)N[C@@H](CO)[C@H](O)[C@@H]1C[C@@H]1C(=O)N1CCCC1", "Potency": "inconclusive: 5.62 µM [inhibitor, single point]"},
      {"smiles": "Cc1onc(-c2ccccc2)c1C(=O)Nc1ccc(S(=O)(=O)NC(C)(C)C)cc1", "Potency": "inconclusive: 2 µM [inhibitor, full curve, poor fit]"},
      {"smiles": "Cc1ccc(C(=O)/C=C/C(=O)O)cc1", "Potency": "inactive"},
      {"smiles": "CCC1CCCCN1c1nc(-c2cccc(OC)c2O)nc2ccccc12", "note": "(configuration not stated)", "Potency": "inconclusive: 17.8 µM [inhibitor, partial curve]"}
    ]}
  ]
}
